The values below come from ChEMBL document CHEMBL4888484, “Replenishing the malaria drug discovery pipeline: Screening and hit evaluation of the MMV Hit Generation Library 1 (HGL1) against asexual blood stage Plasmodium falciparum ,using a nano luciferase reporter read-out” (2022).

Each structure is given as a SMILES string. Hit rate of the full screen: of about 150,000 compounds, about 540 (0.36%) showed an effect of 50% or more. This is one part of the list.

The assay has as its system Plasmodium falciparum. In words: Primary screen in NF54 nanoGlo assay, in single point, at 2uM, 72h; a lower Z score goes with more inhibition. Type of assay: functional, Erythrocyte. The settings on record: timepoint 72 hour.
With `O[C@@H](CNCC=Cc1ccco1)c1cc(Cl)c2c(c1)OCCO2`, the “% Inhibition” value was -29% and the Z score stood at 4.15.
On the same counts, the results for `O=S(=O)(c1ccc2c(c1)OCCO2)N1C2CCC1CC(=C1CC1)C2` are 12% and -1.56.
For `CC(C(=O)NCC(O)CN(C)C(=O)C(C)C1CC1)C1CC1` (configuration not stated) the same measures were -10% and 1.89.
For `CCOc1ncccc1C(=O)N1C[C@@H]2CC[C@H]1CN(S(=O)(=O)N(C)C)C2` the same measures were -12% and 1.5.
In the case of `CC(C)c1nc(CS(=O)(=O)C[C@H](O)c2c(F)cccc2F)cs1`, the “% Inhibition” value came out at 1% and the Z score is on record as -0.19.
On the same counts, the results for `CNC(=O)[C@@H](C)CN(C)c1nccc(OC)n1` are -7% and 1.39.
With `COCCN(CC(=O)N1N=C(c2cccn2C)C[C@H]1c1ccc(Cl)cc1)C(=O)c1ccccc1Cl`, the “% Inhibition” value was -18% and the Z score is 1.61.
As for `Cc1cc(NC(=O)CN2CC(=O)NC[C@H]2c2ccccc2)n(C)n1`, the “% Inhibition” value was -2% and the Z score is on record as 0.27.
For `CC1CC(C)C(C(=O)N(C)Cc2ncon2)O1` (configuration not stated) the same measures were -7% and 0.67.
Take `O=C1NCCN1CC1CCN(C(=O)c2ccc3cccnn23)CC1`: the “% Inhibition” value is -17% and the Z score is given as 2.26.
For `CC1CCN(c2nc3c(c(Oc4ccc(F)cc4)n2)CN(Cc2ccsc2)CC3)CC1` the same measures were -2% and 0.16.
On the same counts, the results for `COCC[C@H]1CN(Cc2cc3cc(C)ccc3n2C)CCO1` are 3% and -0.57.
On the same counts, the results for `C[C@@H](NC(=O)N1CCN(CCOCCO)CC1)c1ccc(F)cc1` are 6% and -0.85.
Consider `COCCn1nnnc1[C@]1(N2CCOCC2)CCCN(C(=O)c2ccco2)C1`, for which the “% Inhibition” value is on record as 4% and the Z score is -0.55.
For `O=C(COC[C@H]1CCCO1)Nc1ccnn1Cc1ccsc1` the same measures were 7% and -0.92.
For `NC(=O)c1cnc(NC(=O)C2CC2c2ccccc2)c(Cl)c1` (configuration not stated) the same measures were -8% and 1.22.
On the same counts, the results for `Cc1ccc(-c2nc(-c3ccc4nncn4c3)no2)s1` are -20% and 3.37.
As to `O=C(NCC1CC1)[C@]1(F)CCCN(Cc2ccccc2)C1`, the “% Inhibition” value is -26% and the Z score is 2.32.
For the compound `CCOCCn1nc(C)cc1C(=O)N1CCC[C@H]1c1nc(C(C)C)no1`, the “% Inhibition” value is -13% and the Z score is reported as 1.47.
For `CN(C)S(=O)(=O)N1C[C@H]2CC[C@@H](C1)N(CCOCc1ccccc1)C2`, the “% Inhibition” value is on record as -1% and the Z score worked out at 0.26.
On the same counts, the results for `O=C(NCc1cn(-c2ccsc2)nn1)Nc1nc(C2CC2)cs1` are 6% and -0.95.
On the same counts, the results for `C[C@H](NC(=O)C#Cc1ccc2c(c1)OCO2)c1nccs1` are 4% and -0.48.
For `CCc1nn(C)c(Cl)c1CN1CCC[C@H](CS(C)(=O)=O)C1` the same measures were -2% and 0.36.
As to `COc1ccc(CCN2C(=O)[C@H](CCC(=O)N3CCc4cc(OC)c(OC)cc4C3)N=C2O)cc1`, the “% Inhibition” value is -17% and the Z score came to 2.25.
On the same counts, the results for `CCCN(C(=O)Nc1cn(CC(C)C)c(=O)c2ccccc12)c1ccccc1C` are 1% and -0.21.
On the same counts, the results for `COc1ccc(C(=O)N[C@@H]2CCC[C@@H]2C(=O)NCc2ccc(C)o2)cc1` are -1% and 0.15.
For `COC(=O)CNC(=O)N1CCCCC[C@H]1c1ccccc1Cl` the same measures were 11% and -1.5.
Take `C[C@H](NC(=O)Cc1ccncc1)C(=O)N1CCCC1`: the “% Inhibition” value is -6% and the Z score is on record as 0.83.
Consider `Cc1ccc(C)c(Cn2cccc2CNC(=O)NC2CCCCC2)c1`, for which the “% Inhibition” value was found to be 8% and the Z score is -1.18.
On the same counts, the results for `O=C1CN(S(=O)(=O)c2cccc3cccnc23)CCN1c1ccccn1` are 17% and -2.14.
On the same counts, the results for `CC(C)(C)[C@H](NS(=O)(=O)CC1CCOCC1)c1ccccc1` are 1% and -0.08.
On the same counts, the results for `Cc1noc(C)c1NC(=O)[C@H]1CC(=O)N(C2CCC(C)CC2)C1` (some centres not stated) are -7% and 1.38.
In the case of `CC(C)[C@H](CNC(=O)c1ccc2c(c1)CCCC2)N1CCN(C)CC1`, the “% Inhibition” value is -3% and the Z score came out at 0.53.
In the case of `Cc1cccc2nc(C3CCN(c4ncnn4C)CC3)oc12`, the “% Inhibition” value is -16% and the Z score is listed as 1.89.
As for `Cn1cc(S(=O)(=O)N2CCCCCC2)cc1C(=O)Nc1ccccc1F`, the “% Inhibition” value is reported as -1% and the Z score came out at 0.13.
On the same counts, the results for `CCCNC(=O)C1CCN(c2nc3ncn(CC(=O)Nc4cccc(C)c4)c(=O)c3s2)CC1` are -10% and 1.79.
For the compound `N#CC1CCN(C(=O)c2cnc(OC3CCOCC3)c(Cl)c2)CC1`, the “% Inhibition” value is reported as -19% and the Z score is reported as 3.56.
`Cc1ccncc1C(=O)N1CCC(C(=O)O)(n2ccc(C(C)(C)C)n2)CC1`: the “% Inhibition” value is reported as -5% and the Z score was determined as 0.95.
For `O[C@@H](CNCc1c[nH]nc1-c1cccnc1)c1ccccc1F` the same measures were 11% and -1.07.
In the case of `CC(=O)N1CCN(CCOc2ccccc2Cl)CCC12CCOCC2`, the “% Inhibition” value is reported as 5% and the Z score is reported as -0.72.
Consider `Cc1cc(F)ccc1-n1cc(C(=O)NC2(C#N)CCOCC2)nn1`, for which the “% Inhibition” value is -6% and the Z score came to 1.16.
On to `COCCN(Cc1ccc(C(O)(c2cccc(F)c2)c2cccc(F)c2)o1)Cc1ccccc1OC`, for which the “% Inhibition” value was -4% and the Z score stood at 0.5.
For `COc1ncccc1-c1n[nH]c2ncccc12` the same measures were -10% and 1.93.
On the same counts, the results for `CN(CC(=O)Nc1nnc(C(F)F)s1)S(=O)(=O)c1ccc(Br)cc1` are -7% and 1.31.
For `OC(COCc1ccco1)CN1CCCCC1Cn1cncn1` (configuration not stated) the same measures were -7% and 1.04.
As for `NC(=O)c1nnsc1NC(=O)C(F)F`, the “% Inhibition” value was -5% and the Z score came to 0.75.
For `CCC1(CC)Oc2ccc(NC(=O)[C@H](C)NC(=O)c3ccoc3)cc2O1`, the “% Inhibition” value came out at 8% and the Z score is on record as -0.81.
For the compound `O=C(NC[C@H](O)c1cccnc1)c1coc(COc2ccc(F)cc2)n1`, the “% Inhibition” value was -10% and the Z score was 1.58.
For `CCc1nccn1CCC(=O)NCc1nonc1C` the same measures were -6% and 0.93.
For `O=C(Nc1ccc(N2CCCN(Cc3cccc(Cl)c3F)C2=O)cc1)c1ccccc1Cl` the same measures were -12% and 2.17.
For `COc1cc(-c2noc(-c3ccccc3)n2)ccc1OCC(=O)Nc1cc(C)cc(C)c1` the same measures were -3% and 0.62.
With `Nc1nccnc1C(=O)NC1CCCCCCC1`, the “% Inhibition” value is -10% and the Z score was 1.99.
On the same counts, the results for `COCC(=O)N[C@H]1CO[C@H]2[C@@H]1OC[C@@H]2n1nnnc1Oc1ccc(-n2ccnc2)cc1` are 13% and -1.56.
Turning to `COc1nc(C)cc(NC2C3CCOC3C2(C)C)n1` (configuration not stated), the “% Inhibition” value worked out at 1% and the Z score is -0.1.
For `C[C@H]1CN(C)CCN1C(=O)c1cn2cccnc2n1` the same measures were -1% and 0.06.
For `CCn1nccc1-c1n[nH]c(=O)n1CC` the same measures were -3% and 0.43.
Turning to `COc1ccc(C(=O)N2CCCN(c3nnc(C(F)(F)F)s3)CC2)nc1`, the “% Inhibition” value was -2% and the Z score was found to be 0.25.
On the same counts, the results for `Cn1c(CN[C@H]2CCc3ccccc32)nc2ccccc21` are -6% and 1.01.
As for `CC1(C)CCC(C(=O)N2CCC[C@@H]2C(N)=O)O1` (some centres not stated), the “% Inhibition” value was -8% and the Z score was found to be 0.84.
On the same counts, the results for `CCc1nnc2n1CCN(CCCCC#N)C2` are -8% and 1.02.
For `CCC1CCCCC1OCC(=O)N1CCOCC1C1CCCCC1=O` (configuration not stated) the same measures were -5% and 0.59.
For the compound `Cc1cc(-c2ccc(C(=O)N3CCN(Cc4nnc[nH]4)CC3)cc2)ccn1`, the “% Inhibition” value was 3% and the Z score is given as -0.31.
On the same counts, the results for `O=C(N[C@H]1CCC[C@@H]1O)C1COc2ccc(Br)cc21` (some centres not stated) are 27% and -3.05.
On the same counts, the results for `O=c1ccc(NS(=O)(=O)c2ccccc2)c2n1C[C@H]1C[C@@H]2CN(S(=O)(=O)c2ccccc2)C1` are -2% and 0.32.
On the same counts, the results for `OCC1OC(Nc2ccc(Br)cc2)C(O)C1O` (configuration not stated) are -2% and 0.32.
`COc1ccc(OC)c(C(=O)c2ccc(C(=O)N3CCCC3)cc2)c1`: the “% Inhibition” value is -20% and the Z score is recorded as 3.11.
Turning to `COCCN(C(=O)CCc1cccc(F)c1)c1ccncc1`, the “% Inhibition” value turned out to be 0% and the Z score is reported as -0.02.
For `COC(=O)c1cnccc1N1CC(C)(OC)C1` the same measures were 2% and -0.18.
On the same counts, the results for `CCc1ccc2c(c1)[C@H](CCNC(=O)c1ncccc1F)C(=O)N2` are -4% and 0.72.
For `COCCN1C(=O)CN(C2CCN(C(=O)Cc3ccc(Cl)cc3)CC2)C1=O` the same measures were -5% and 0.52.
Consider `Cc1ccc(CNC(=O)c2csnn2)n1C`, for which the “% Inhibition” value was found to be 40% and the Z score is -4.05.
Consider `O=S(=O)(Cc1nnnn1-c1ccccc1)c1ccccc1`, for which the “% Inhibition” value is on record as -10% and the Z score was 1.35.
For `O=C(Cc1noc(Cc2ccc(F)cc2)n1)Nc1ccc(N2CCOCC2)cc1` the same measures were -6% and 0.78.
On the same counts, the results for `COc1cc2ncc3c(-c4ccc(C)c(C)c4)n[nH]c3c2cc1OC` are 51% and -4.04.
For `C[C@H]1CN(C(=O)Nc2ncc(Cc3ccccc3)s2)CCCO1` the same measures were -9% and 1.24.
Turning to `Cn1cccc1-c1nnc(C2(C)CCOCC2)o1`, the “% Inhibition” value is reported as -12% and the Z score was found to be 1.17.
For `CC(=O)Nc1c(Cl)n(C(C)=O)c2ccccc12` the same measures were -9% and 1.25.
On the same counts, the results for `COc1ccc(-c2nc3cccnc3n2[C@H]2CCN(C(=O)Nc3cc(F)ccc3F)C2)cc1` are -11% and 1.61.
On the same counts, the results for `CCS(=O)(=O)c1cc(F)ccc1NC(=O)N1CC[C@]2(CCOC2)C1` are -8% and 1.16.
As to `COc1nccc(N2C[C@H]3CC[C@@H](C2)N(Cc2c(C)noc2C)C3=O)c1C#N`, the “% Inhibition” value is reported as -7% and the Z score is reported as 0.61.
On the same counts, the results for `CC(C)Cc1cc(N[C@H]2CC23CCOCC3)ncn1` are -9% and 1.46.
For `Nc1nc(CCCNCc2cccc(-c3ccco3)c2)cs1` the same measures were -25% and 2.77.
For `Cc1nn(C)c(C)c1[C@@H]1[C@@H](Nc2nccs2)CC(=O)N1C` the same measures were -7% and 1.3.
Take `O=C(Nc1ccccc1)C1CCN(CN2C(=O)NC3(CCCCC3)C2=O)CC1`: the “% Inhibition” value was -7% and the Z score is on record as 1.04.
In the case of `Cn1cc(Cl)c(NC(=O)N2CCn3cccc3C2)n1`, the “% Inhibition” value is on record as -12% and the Z score is reported as 1.23.
For the compound `COc1ccc(Nc2nnc(C(=O)N3CCCC3)n2C)cc1`, the “% Inhibition” value was -11% and the Z score was 1.55.

By % Inhibition is commonly meant the relative decrease from the control value, in per cent.
